The supplement of paper PMC8948288
Shown are siRNA guide strands that differ only in the seed, positions 2 to 7.

Experiments:
GL261 = experiment: cell viability relative to siNT1 (ATP content); H4 human neuroglioma and GL261 mouse glioma; higher = less toxic; conditions: siRNA concentration 25 nM; 96 h; mouse
Procedure: (§1)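 Arrayed screen of all 4096 6mer seeds. Each seed sits at guide-strand positions 2-7 of a neutral 19mer siRNA backbone (siNT1-based, passenger strand 2'-O-methyl modified at positions 1-2 to block RISC loading, 3' DNA overhangs). The guide strand is built here as U + seed + ACAUGUAAACCA. Cells were reverse transfected in triplicate in 384-well plates (H4 at 10 nM, GL261 at 25 nM) with Lipofectamine RNAiMAX. Viability was read as ATP content (CellTiter-Glo) 96 h after transfection and normalised to siNT1 (%).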

H4 = experiment: as above; conditions: siRNA concentration 10 nM; 96 h; human
Procedure: as §1
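Also: cells reverse transfected with siRNA duplexes via lipid reagent, ATP read by luminescence, triplicate wells, values scaled to mean viability with non-targeting control siNT1.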

Sequence | cell viability (GL261) | cell viability (H4)
UCACGUCACAUGUAAACCA | 19.9% | 87.6%
UCACGUGACAUGUAAACCA | 38.2% | 71.1%
UCACGUUACAUGUAAACCA | 37.4% | 80.1%
UCACUAAACAUGUAAACCA | 42% | 110%
UCACUACACAUGUAAACCA | 31.4% | 72.2%
UCACUAGACAUGUAAACCA | 32.3% | 67.9%
UCACUAUACAUGUAAACCA | 35.2% | 68.6%
UCACUCAACAUGUAAACCA | 32.2% | 68.4%
UCACUCCACAUGUAAACCA | 18% | 37%
UCACUCGACAUGUAAACCA | 30.2% | 92.1%
UCACUCUACAUGUAAACCA | 17.3% | 92.8%
UCACUGAACAUGUAAACCA | 26.9% | 110%
UCACUGCACAUGUAAACCA | 10.8% | 33.5%
UCACUGGACAUGUAAACCA | 37.3% | 36.8%
UCACUGUACAUGUAAACCA | 11.4% | 51.2%
UCACUUAACAUGUAAACCA | 61.9% | 95.1%
UCACUUCACAUGUAAACCA | 25.8% | 41.4%
UCACUUGACAUGUAAACCA | 44.7% | 70.4%
UCACUUUACAUGUAAACCA | 36.8% | 80.4%
UCAGAAAACAUGUAAACCA | 47.4% | 98.3%
UCAGAACACAUGUAAACCA | 51.9% | 74.7%
UCAGAAGACAUGUAAACCA | 70.2% | 113%

Sequence | cell viability (GL261) | cell viability (H4)
UCAGAAUACAUGUAAACCA | 44.1% | 80%
UCAGACAACAUGUAAACCA | 64.3% | 119%
UCAGACCACAUGUAAACCA | 26.2% | 66.9%
UCAGACGACAUGUAAACCA | 51.8% | 97.6%
UCAGACUACAUGUAAACCA | 20.2% | 88.9%
UCAGAGAACAUGUAAACCA | 37% | 71.3%
UCAGAGCACAUGUAAACCA | 31.7% | 63.9%
UCAGAGGACAUGUAAACCA | 29.9% | 81.8%
UCAGAGUACAUGUAAACCA | 31.8% | 68.5%
UCAGAUAACAUGUAAACCA | 52.1% | 96.9%
UCAGAUCACAUGUAAACCA | 37.3% | 87.3%
UCAGAUGACAUGUAAACCA | 55.6% | 67.9%
UCAGAUUACAUGUAAACCA | 54.3% | 82.2%
UCAGCAAACAUGUAAACCA | 40% | 78%
UCAGCACACAUGUAAACCA | 9.31% | 112%
UCAGCAGACAUGUAAACCA | 42.2% | 66.5%
UCAGCAUACAUGUAAACCA | 27% | 99.7%
UCAGCCAACAUGUAAACCA | 37.4% | 72.5%
UCAGCCCACAUGUAAACCA | 22.5% | 53.3%
UCAGCCGACAUGUAAACCA | 31.7% | 91.1%
UCAGCCUACAUGUAAACCA | 34.5% | 54.5%
UCAGCGAACAUGUAAACCA | 22.8% | 89.9%

Sequence | cell viability (GL261) | cell viability (H4)
UCAGCGCACAUGUAAACCA | 20.5% | 82.4%
UCAGCGGACAUGUAAACCA | 31.8% | 66.9%
UCAGCGUACAUGUAAACCA | 30.5% | 94.8%
UCAGCUAACAUGUAAACCA | 42% | 84.6%
UCAGCUCACAUGUAAACCA | 34% | 86.9%
UCAGCUGACAUGUAAACCA | 40.1% | 76.1%
UCAGCUUACAUGUAAACCA | 25.5% | 100%
UCAGGAAACAUGUAAACCA | 71.8% | 118%
UCAGGACACAUGUAAACCA | 30.6% | 35.8%
UCAGGAGACAUGUAAACCA | 40.8% | 77.5%
UCAGGAUACAUGUAAACCA | 44.7% | 101%
UCAGGCAACAUGUAAACCA | 24.2% | 85.4%
UCAGGCCACAUGUAAACCA | 3.63% | 5.95%
UCAGGCGACAUGUAAACCA | 21.8% | 67.4%
UCAGGCUACAUGUAAACCA | 37.2% | 58.9%
UCAGGGAACAUGUAAACCA | 33.6% | 80.7%
UCAGGGCACAUGUAAACCA | 12.9% | 6.7%
UCAGGGGACAUGUAAACCA | 16.7% | 30%
UCAGGGUACAUGUAAACCA | 20.1% | 21.1%
UCAGGUAACAUGUAAACCA | 54.1% | 105%
UCAGGUCACAUGUAAACCA | 16.5% | 44.9%
UCAGGUGACAUGUAAACCA | 45.8% | 75.5%

Sequence | cell viability (GL261) | cell viability (H4)
UCAGGUUACAUGUAAACCA | 61% | 67.4%
UCAGUAAACAUGUAAACCA | 39.1% | 119%
UCAGUACACAUGUAAACCA | 23.2% | 55.8%
UCAGUAGACAUGUAAACCA | 52.5% | 98.2%
UCAGUAUACAUGUAAACCA | 39.4% | 65.8%
UCAGUCAACAUGUAAACCA | 34.8% | 100%
UCAGUCCACAUGUAAACCA | 18.8% | 28.6%
UCAGUCGACAUGUAAACCA | 26.9% | 104%
UCAGUCUACAUGUAAACCA | 27.8% | 113%
UCAGUGAACAUGUAAACCA | 52.6% | 77.9%
UCAGUGCACAUGUAAACCA | 32.6% | 71.2%
UCAGUGGACAUGUAAACCA | 23.2% | 29.3%
UCAGUGUACAUGUAAACCA | 38.6% | 103%
UCAGUUAACAUGUAAACCA | 65.9% | 80.4%
UCAGUUCACAUGUAAACCA | 34.3% | 76.4%
UCAGUUGACAUGUAAACCA | 59.6% | 77.4%
UCAGUUUACAUGUAAACCA | 48.3% | 93.4%
UCAUAAAACAUGUAAACCA | 38.8% | 104%
UCAUAACACAUGUAAACCA | 27.3% | 72.3%
UCAUAAGACAUGUAAACCA | 39.3% | 111%
